Assay results published in patent US12551573B2, “Compositions and methods for the targeting of PCSK9” (Scribe Therapeutics Inc., priority 2022, dated 2026).
Like-named read-outs stand apart in the source and are kept apart here.

System: HBEGF locus
Format: cell-based, human
[1] = repressor domain in dXR, repression of the HBEGF gene, abundance of domain in library after vs before diphtheria toxin selection
[2] = high-throughput screen of dXR repression of the HBEGF gene, change in abundance of each domain in the library before and after diphtheria toxin selection

Molecule | Log2 (fold change) [1] | Log2 (fold change) [2]
DOMAIN_11006 (protein, listed as Loxodonta africana) QESVTFKDVAVDFTQEEWHHMDPTQRILYRDVMLETYSHLVSLGYQVSKPEVIFKLEQGEEPWISEEEIQRPFCPDWEIRP | 2.6669 | –
DOMAIN_10647 (protein, Delphinapterus leucas) AQESVMFSDVSIDFSQEEWEYLNDDQRDLYREVMLENYSNLVSMAGHSISKPDVISFLEQGKEPWLVDRELTRDQWPVLES | 2.9514 | –
DOMAIN_11040 (protein, listed as Sus scrofa) AQESVMFSDVSIDFSQEEWECLNDDQRALYRDVMLENYSNLVSMAGHSISKPDVISFLEQGKEPWLVDRELTRGQWPVLES | 3.5161 | –
DOMAIN_10762 (protein, listed as Erinaceus europaeus) RSEALSFADVSVSFSREEWGCLRPAQKALYRDVMRETCGLLGALGLSGPKPAFISWLEGEMEAWSPEAHEPERESRAADAR | 3.9254 | –
DOMAIN_10733 (protein, listed as Odobenus rosmarus) RPRAVKFADVAVYFSPEEWGCLRPAQRALYRDVMRETYGHLGALGCAGPKPALISWLERNTDDWEPAALDPQECPRGLTVQ | 3.315 | –
DOMAIN_10902 (protein, Vicugna pacos) RPRAVKFADVAVYFSPEEWECLRPAQRALYRDVMQETYGHLGALGCAGPKPALISWLERNTNDWELAALDPQECPRQMTVQ | 3.1052 | –
DOMAIN_10943 (protein, listed as Cervus elaphus) VFDAVTFTDVAVDFSQDEWERLTLAQRTLYKKVMLENYSNLASLGLCISKPDVISSLEQDKEPWTMKGELTRGPCADLEYV | 2.5554 | –
DOMAIN_10184 (protein, listed as Mus caroli) AHSMVMFRDVTVDFSQEEWECLSSYERDLYRDVMLENYSHLVSLGCSISKPDVITLLEQGKEPWMIVRAEKRRWSRDLESR | 4.2854 | –
DOMAIN_10403 (protein, Vicugna pacos) AQGSVMFSDVSIDFSQEEWECLNDDQRDLYRDVMLENYSNLVSMGHCISKPDVISFLEQGKEPWLVDREPTRYQWPVLESR | 3.3993 | –
DOMAIN_12452 (protein, listed as Neophocaena asiaeorientalis) SQGPVSFEDVAVDFTQEEWQQLDPAQRTLYRDVMLENYSHLVSVGYPVSKPGVISKLEQGEEPWIMKRDISNWIYPDRETR | – | 3.8774
DOMAIN_10684 (protein, listed as Odobenus rosmarus) QAEVTFEDVAVLFSREEWGRLSPAQRGLYRDVMLETYRNLVSLGAGPAGPKPGVITQLERGDEPWVLDAQGAKGKERLRVS | 4.531 | –
DOMAIN_10386 (protein, listed as Odobenus rosmarus) SHGPLSFEDVAIAFTKEEWQQLDPAQRTLYRDVMLENFSHLVSLGHPVSKPDIISRLEQGEEPWIIKRDISDWICPERETR | 2.8337 | –
DOMAIN_10917 (protein, listed as Odobenus rosmarus) KPGAVSFADVAVYFSPEEWGCLRPAQRALYRDVMRETYGHLGALGFPGPKPALISWMEQESEAWSPAAQDPEEGESLGGAL | 3.7871 | –
DOMAIN_12292 (protein, listed as Sus scrofa) FQAPVTFGDLAIYFSQEEWECLSPIQKDLYEDVMLENYQNLVSLGLSFRRPNVITLLEKGKAPWMVEPVKRRRGLDLGSKC | – | 4.3194
DOMAIN_10705 (protein, listed as Colobus angolensis) SKAPITFGDLAIYFSQEEWEWLSPIQKDLYEDVMLENYRNLVSLGLSFRRPNVITLLEKGKAPWMVEPVRRRQAPDSGSKC | 3.6392 | –
DOMAIN_10704 (protein, listed as Colobus angolensis) RLESVTFEDVAVYFTQNQWASLNPAQRALYGEVMLENYANVASLVAFPFPKPALISHLERGEAPWGPDPWDTKIPRGIGQG | 3.1582 | –
DOMAIN_11053 (protein, Nomascus leucogenys) WPESVTFEDVAVYFTQNQWASLDPAQRALYREVMLENYANVASLVAFPFPKPALISHLERGEAPWGPDPWDTEIPRGISQG | 3.677 | –
DOMAIN_10623 (protein, listed as Carlito syrichta) SQGLVTFGDVALDFSQEEWEWLNPSQKDLYRDVMLENYRNLVWLGLSISKPNMISLLEQGKEPWMVEREMSHGQCADWESW | 3.2233 | –
DOMAIN_10526 (protein, Delphinapterus leucas) FQGSLSFRDVAVGFTRKEWQQLDPTQRTLYRDVMLENYSHLVSVGCQVTKPAVISRLEQGQEPWMKEEEILRWSFPEVLQV | 2.4499 | –

Molecule | Log2 (fold change) [1] | Log2 (fold change) [2]
DOMAIN_10294 (protein, listed as Mus musculus) SQVSLTFEDVAVLFTRDEWKKLVPSQRSLYREVMLENYSNLASLAGFPFTKPKVISLLQQGEDPWKVEEEGPGGFSLGLKC | 2.689 | –
DOMAIN_11486 (protein, listed as Bos mutus) SQSPLTFGDVAVEFSGEEWAWLDSAQRSLHRSVMLENYRNLASLGLCLSKPEMISSLEQRKEPWAVKRKSTRGMRPDSQTL | – | 4.8326
DOMAIN_10160 (protein, listed as Ictidomys tridecemlineatus) AHESLAFRDVAIDLSQEEWECLDTAQRDLYREVMLENYSNLISLGCIIPKPDVIVLLEQEKDPWLETREETRRRSSDFTKK | 2.9333 | –
DOMAIN_10425 (protein, Delphinapterus leucas) SQESVSFEDVAVYFTRNQWASLDSAQRTLYREVMLENYANVTSLAAFPFPKPDLIFQLERGKAPGGLDPWTPIRREVRGVC | 2.8616 | –
DOMAIN_11034 (protein, listed as Mandrillus leucophaeus) ACESITFGDVAIDFSHQEWEYLNLVQKTLYQEVMMENYDNLVSLGHFISKPDLITLLEQGKEPWMIVGEETRGECTDLDSR | 2.2541 | –
DOMAIN_10765 (protein, listed as Mustela putorius) SSVTFEDVAVYFSQEEWRFLNKAQKHLYHDVMLEVFALIASLGGGQGALEAAAPSEQNVSGGGSQKAYAQDCSLDTNPGQT | 2.5661 | –
DOMAIN_10427 (protein, listed as Carlito syrichta) SKDLVTFGDVAVNFSQEEWEWLNPAQRNLYRRVMLENYRSLVSLGVSVSKPDVISLLEQGKEPWMVKKEGTRGACPDWEYV | 2.3719 | –
DOMAIN_11031 (protein, listed as Mandrillus leucophaeus) SKGSLMFRDVSIDFSQEEWECLDSGQMNLYKEVMLENFSNLVSVGLSSSKPAVISLLEQGKEPWMVDRELTRGLCSDLESM | 2.5516 | –
DOMAIN_10420 (protein, listed as Odobenus rosmarus) SQEPVTFEDVAVYFTQNQWASLDPMQRALYLEVMLENYANITSLAALPFPKPDLILQLEQGEAPWGLDPWTPLEREALGGV | 3.7185 | –
DOMAIN_10351 (protein, Delphinapterus leucas) FQGSVSFKDVTVDFSREEWQQLDLAQKSLYRDVMLENYFNLISVGCQVPKPEVIFNLERGEQPCMLDGEISSQSYLDQGIG | 3.3309 | –
DOMAIN_10334 (protein, listed as Mustela putorius) PQKSVTFEDVAVYFTQTEWDGLSPAQRALYRDVMLENYGNVASLGFSLLKPAVISQLEGAGELGRPSPLVAGTEIGLQGLW | 3.3529 | –
DOMAIN_10882 (protein, Vicugna pacos) PQKSVTFEDVAVYFTQTEWDGLSPAQRALYRDVMLENYGNVASLGFPLLKPAVISQLEGGGKLGGPSPLASGTGTGPQGLW | 3.6289 | –
DOMAIN_10495 (protein, Delphinapterus leucas) SQEAVTFEDVAVNFSNEEWQCLTHAQRHLYKDVMLENYGNVVSLGFPFPKPPLISHLEQEAELCVQDGQDREFLSCSHPVS | 3.4705 | –
DOMAIN_10646 (protein, Delphinapterus leucas) FESVVFEDVAVDFTPEEWALLDPAQRNLYRDVMLETFRNLASVGENWKCHSIEDQHKNQGTHLRWRVVEIPSENNESNQCG | 2.9354 | –
DOMAIN_10381 (protein, Vicugna pacos) SQGSLSFRDVTVGFTWEEWQQLDPAQRALYRDVMLETYSHLLSVGYCIPKPEVILKLEQGEEPWILEEESSSQSVPELINS | 2.215 | –
DOMAIN_10257 (protein, listed as Octodon degus) EPWAVTFADVAVYFSSEEWRCLRPAQRALYRDVMRDTYGLLSALGGGGTKPALISWVEGEAELWDPDAQDPEVVRWPAEAD | 3.1757 | –
DOMAIN_11024 (protein, listed as Suricata suricatta) TQDPVVFEDVAVDFTQEEWALLNLAQRNLYRDVMLENFQNLASLGYPLHIPYLISQWKQEEDLGTVERGTIQGEHQEGFET | 3.2397 | –
DOMAIN_10491 (protein, Vicugna pacos) RPESVTFEDVAIYFSENEWTGLAPAQRALYRDVMLENYGALASLAAFPFPKPALIFQLEQGEAPWSSAPQGALDGEGPRGI | 3.7199 | –
